Scores with a large standard error are left out. Two further conditions of the source, in which the scores hardly spread, are not listed. Read del as a deletion of the residues named and ins as an insertion between two positions. For some of these results: How much ogerin was present is not stated here.
B1: GPR68, Q15743 (parent)
chain: MGNITADNSSMSCTIDHTIHQTLAPVVYVTVLVVGFPANCLSLYFGYLQIKARNELGVYLCNLTVADLFYICSLPFWLQYVLQHDNWSHGDLSCQVCGILLYENIYISVGFLCCISVDRYLAVAHPFRFHQFRTLKAAVGVSVVIWAKELLTSIYFLMHEEVIEDENQHRVCFEHYPIQAWQRAINYYRFLVGFLFPICLLLASYQGILRAVRRSHGTQKSRKDQIQRLVLSTVVIFLACFLPYHVLLLVRSVWEASCDFAKGVFNAYHFSLLLTSFNCVADPVLYCFVSETTHRDLARLRGACLAFLTCSRTGRAREAYPLGAPEASGKSGAQGEEPELLTKLHPAFQTPNSPGSGGFPTGRLA

Columns and labels:
[1] = variants of: B1; test: cAMP reporter score (Enrich2 score, wild type = 0); higher = more signal; HEK293T, FACS bins
[2] = variants of: B1; test: surface expression score (Enrich2 score, wild type = 0); higher = more signal; HEK293T, FACS bins

V234del
cAMP reporter score ([1]; pH 5.5): -1.69 | cAMP reporter score ([1]; pH 6, modulator: ogerin): -3 | cAMP reporter score ([1]; pH 6.5, modulator: ogerin): -1.14 | surface expression score [2]: -2.69

V235_I236insGS
cAMP reporter score ([1]; pH 5.5): -1.49 | cAMP reporter score ([1]; pH 6): -0.78 | cAMP reporter score ([1]; pH 6, modulator: ogerin): -1.35 | cAMP reporter score ([1]; pH 6.5, modulator: ogerin): -1.12 | surface expression score [2]: -2.98

MGNITADNSSMSCTIDHTIHQTLAPVVYVTVLVVGFPANCLSLYFGYLQIKARNELGVYLCNLTVADLFYICSLPFWLQYVLQHDNWSHGDLSCQVCGILLYENIYISVGFLCCISVDRYLAVAHPFRFHQFRTLKAAVGVSVVIWAKELLTSIYFLMHEEVIEDENQHRVCFEHYPIQAWQRAINYYRFLVGFLFPICLLLASYQGILRAVRRSHGTQKSRKDQIQRLVLSTVVCFLACFLPYHVLLLVRSVWEASCDFAKGVFNAYHFSLLLTSFNCVADPVLYCFVSETTHRDLARLRGACLAFLTCSRTGRAREAYPLGAPEASGKSGAQGEEPELLTKLHPAFQTPNSPGSGGFPTGRLA [I236C]
cAMP reporter score ([1]; pH 5.5): -0.186 | cAMP reporter score ([1]; pH 6): 4.39 | surface expression score [2]: -1.89

MGNITADNSSMSCTIDHTIHQTLAPVVYVTVLVVGFPANCLSLYFGYLQIKARNELGVYLCNLTVADLFYICSLPFWLQYVLQHDNWSHGDLSCQVCGILLYENIYISVGFLCCISVDRYLAVAHPFRFHQFRTLKAAVGVSVVIWAKELLTSIYFLMHEEVIEDENQHRVCFEHYPIQAWQRAINYYRFLVGFLFPICLLLASYQGILRAVRRSHGTQKSRKDQIQRLVLSTVVDFLACFLPYHVLLLVRSVWEASCDFAKGVFNAYHFSLLLTSFNCVADPVLYCFVSETTHRDLARLRGACLAFLTCSRTGRAREAYPLGAPEASGKSGAQGEEPELLTKLHPAFQTPNSPGSGGFPTGRLA [I236D]
cAMP reporter score ([1]; pH 5.5): -1.63 | cAMP reporter score ([1]; pH 6): -1.03 | cAMP reporter score ([1]; pH 6, modulator: ogerin): -1.27 | cAMP reporter score ([1]; pH 6.5, modulator: ogerin): -0.518 | surface expression score [2]: -2.31

MGNITADNSSMSCTIDHTIHQTLAPVVYVTVLVVGFPANCLSLYFGYLQIKARNELGVYLCNLTVADLFYICSLPFWLQYVLQHDNWSHGDLSCQVCGILLYENIYISVGFLCCISVDRYLAVAHPFRFHQFRTLKAAVGVSVVIWAKELLTSIYFLMHEEVIEDENQHRVCFEHYPIQAWQRAINYYRFLVGFLFPICLLLASYQGILRAVRRSHGTQKSRKDQIQRLVLSTVVFFLACFLPYHVLLLVRSVWEASCDFAKGVFNAYHFSLLLTSFNCVADPVLYCFVSETTHRDLARLRGACLAFLTCSRTGRAREAYPLGAPEASGKSGAQGEEPELLTKLHPAFQTPNSPGSGGFPTGRLA [I236F]
cAMP reporter score ([1]; pH 5.5): 0.061 | cAMP reporter score ([1]; pH 6): 3.15 | cAMP reporter score ([1]; pH 6, modulator: ogerin): -0.534 | cAMP reporter score ([1]; pH 6.5, modulator: ogerin): -0.265

MGNITADNSSMSCTIDHTIHQTLAPVVYVTVLVVGFPANCLSLYFGYLQIKARNELGVYLCNLTVADLFYICSLPFWLQYVLQHDNWSHGDLSCQVCGILLYENIYISVGFLCCISVDRYLAVAHPFRFHQFRTLKAAVGVSVVIWAKELLTSIYFLMHEEVIEDENQHRVCFEHYPIQAWQRAINYYRFLVGFLFPICLLLASYQGILRAVRRSHGTQKSRKDQIQRLVLSTVVEFLACFLPYHVLLLVRSVWEASCDFAKGVFNAYHFSLLLTSFNCVADPVLYCFVSETTHRDLARLRGACLAFLTCSRTGRAREAYPLGAPEASGKSGAQGEEPELLTKLHPAFQTPNSPGSGGFPTGRLA [I236E]
cAMP reporter score ([1]; pH 5.5): -0.9 | cAMP reporter score ([1]; pH 6): -0.409 | cAMP reporter score ([1]; pH 6, modulator: ogerin): -0.177 | cAMP reporter score ([1]; pH 6.5, modulator: ogerin): -1.87

V235_I236insGSG
cAMP reporter score ([1]; pH 5.5): -2.24 | cAMP reporter score ([1]; pH 6): -0.81 | cAMP reporter score ([1]; pH 6, modulator: ogerin): -1.19 | cAMP reporter score ([1]; pH 6.5, modulator: ogerin): -2.17 | surface expression score [2]: -4.08

V235_I236del
cAMP reporter score ([1]; pH 5.5): -2.39 | cAMP reporter score ([1]; pH 6): -0.711 | cAMP reporter score ([1]; pH 6.5, modulator: ogerin): -1.91 | surface expression score [2]: -3.72

From the GPR68 mutational scans of Howard et al. (2025)
